Sequences with one replicate were seen in a single cluster, so their values are uncertain.
Test system: ATP
Assay: switch fluorescence ratio, 500 uM ATP over buffer (Cy3 cluster intensity, sum of 5 cycles each) (fold (ratio)); higher = stronger signal-on switching upon ATP binding; sequences stand for … in TCGTCGGCAGCGTCAGATGTGTATAAGAGACAGTTTTTTTTTTTTTTTTTTTTTTTTT…TC
Conditions: aptamer strand: ATP DNA aptamer (quencher-CACCTGGGGGAGTATTGCGGAGGAAGG + anchor), 100 nM annealed; ATP concentration: 500 uM; one replicate
Outline: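 Clusters with intensities outside 100-1000 RFU were excluded. The remaining Cy3-labelled switching-strand clusters on a modified Illumina MiSeq flow-cell had been annealed to 100 nM quencher-labelled ATP aptamer and imaged in selection buffer, then after 15 min with 500 uM ATP at 22 °C, for five cycles separated by NaOH stripping and re-annealing. The fluorescence ratio, averaged per switch-domain sequence, is each cluster's summed target-cycle Cy3 intensity over its summed buffer-cycle Cy3 intensity.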
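Note: ATP exposure 15 min at 22 °C before imaging.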

Q: CTAATCCTGG was tested. Which switch fluorescence ratio did it give?
A: 1.02

Q: How did the switch fluorescence ratio turn out when CTAATCTTTT was run?
A: 0.97

Q: Which switch fluorescence ratio does the source give for CTAATGACTA here?
A: 1.05

Q: Which switch fluorescence ratio does the source give for CTAATTATGC here?
A: 1.06

Q: CTAATTCGCT was tested. Which switch fluorescence ratio did it give?
A: 1.02

Q: CTAATTGCGT was tested. Which switch fluorescence ratio did it give?
A: 1.02

Q: Which switch fluorescence ratio does the source give for CTAATTTGTT here?
A: 0.984

Q: How did the switch fluorescence ratio turn out when CTACACAGCA was run?
A: 1.08

Q: Which switch fluorescence ratio does the source give for CTACAGTAGA here?
A: 1.01

Q: Which switch fluorescence ratio does the source give for CTACAGTTGG here?
A: 1.01

Q: How did the switch fluorescence ratio turn out when CTACATAGGC was run?
A: 1.07

Q: How did the switch fluorescence ratio turn out when CTACATATGT was run?
A: 1

Q: With CTACATTGGT as the sequence, how does the switch fluorescence ratio read?
A: 0.974

Q: Which switch fluorescence ratio does the source give for CTACCAAAT here?
A: 1.07

Q: CTACCGGTT was tested. Which switch fluorescence ratio did it give?
A: 0.958

Q: With CTACGAGTTG as the sequence, how does the switch fluorescence ratio read?
A: 0.998

Q: With CTACTAACA as the sequence, how does the switch fluorescence ratio read?
A: 1.15

Q: Which switch fluorescence ratio does the source give for CTACTCTCGT here?
A: 1.01

Q: CTACTCTTTC was tested. Which switch fluorescence ratio did it give?
A: 1.15

Q: How did the switch fluorescence ratio turn out when CTACTGGCCC was run?
A: 1.02

Q: With CTACTGGGTG as the sequence, how does the switch fluorescence ratio read?
A: 1.42

Q: For CTAGAAACAG, which switch fluorescence ratio is on record?
A: 0.991

Q: Which switch fluorescence ratio does the source give for CTAGAATACA here?
A: 1.03

Q: How did the switch fluorescence ratio turn out when CTAGACCAA was run?
A: 0.956

Q: With CTAGACGGGG as the sequence, how does the switch fluorescence ratio read?
A: 0.986

Q: CTAGAGAAAG was tested. Which switch fluorescence ratio did it give?
A: 1.01

Q: With CTAGAGAGG as the sequence, how does the switch fluorescence ratio read?
A: 0.959

Q: How did the switch fluorescence ratio turn out when CTAGATGTAC was run?
A: 1.05

Q: CTAGCACACT was tested. Which switch fluorescence ratio did it give?
A: 1.17

Q: Which switch fluorescence ratio does the source give for CTAGCCGTAG here?
A: 0.975

Q: Which switch fluorescence ratio does the source give for CTAGCGAATT here?
A: 1

Q: How did the switch fluorescence ratio turn out when CTAGCGATAT was run?
A: 3.15

Q: How did the switch fluorescence ratio turn out when CTAGGAGCC was run?
A: 1.02

Q: Which switch fluorescence ratio does the source give for CTAGGATGCA here?
A: 0.969

Q: How did the switch fluorescence ratio turn out when CTAGGCGACT was run?
A: 1.01

Q: How did the switch fluorescence ratio turn out when CTAGGGATTA was run?
A: 1

Q: Which switch fluorescence ratio does the source give for CTAGGGCATC here?
A: 0.99

Q: With CTAGGGCCGT as the sequence, how does the switch fluorescence ratio read?
A: 1.04

Q: For CTAGGGTAAA, which switch fluorescence ratio is on record?
A: 0.972

Q: CTAGGGTGAC was tested. Which switch fluorescence ratio did it give?
A: 0.952

Q: With CTAGGGTGTA as the sequence, how does the switch fluorescence ratio read?
A: 1.05

Q: For CTAGGTGAAG, which switch fluorescence ratio is on record?
A: 0.982

Q: With CTAGGTTTTC as the sequence, how does the switch fluorescence ratio read?
A: 0.999

Q: For CTAGTAGGTC, which switch fluorescence ratio is on record?
A: 0.998

Q: CTAGTATTTA was tested. Which switch fluorescence ratio did it give?
A: 0.983

Q: How did the switch fluorescence ratio turn out when CTAGTCTGGG was run?
A: 0.97

Q: With CTAGTCTTTG as the sequence, how does the switch fluorescence ratio read?
A: 0.981

Q: How did the switch fluorescence ratio turn out when CTAGTTGTGC was run?
A: 0.975

Q: Which switch fluorescence ratio does the source give for CTAGTTTCAG here?
A: 0.977

Q: For CTATAAGAAG, which switch fluorescence ratio is on record?
A: 0.999

Q: How did the switch fluorescence ratio turn out when CTATAATATC was run?
A: 1.04

Q: With CTATACAGGG as the sequence, how does the switch fluorescence ratio read?
A: 1.03

Q: For CTATAGGTGG, which switch fluorescence ratio is on record?
A: 1.67

Q: For CTATATACTT, which switch fluorescence ratio is on record?
A: 1.05

Q: For CTATATATAG, which switch fluorescence ratio is on record?
A: 0.986

Q: Which switch fluorescence ratio does the source give for CTATATTCGT here?
A: 0.997

Q: For CTATATTGCA, which switch fluorescence ratio is on record?
A: 1.01

Q: For CTATCCTTTG, which switch fluorescence ratio is on record?
A: 0.988

Q: For CTATCTATGG, which switch fluorescence ratio is on record?
A: 1.02

Q: How did the switch fluorescence ratio turn out when CTATGAACTT was run?
A: 0.994

Q: CTATGCACTC was tested. Which switch fluorescence ratio did it give?
A: 1.92

Q: With CTATGGGCTG as the sequence, how does the switch fluorescence ratio read?
A: 0.901

Q: How did the switch fluorescence ratio turn out when CTATGGGTAA was run?
A: 1.01

Q: Which switch fluorescence ratio does the source give for CTATGGGTTG here?
A: 0.997

Q: Which switch fluorescence ratio does the source give for CTATGGTACT here?
A: 1.02

Q: For CTATGGTTGA, which switch fluorescence ratio is on record?
A: 0.992

Q: Which switch fluorescence ratio does the source give for CTATGTTAGC here?
A: 1.01

Q: CTATTAATCA was tested. Which switch fluorescence ratio did it give?
A: 1

Q: Which switch fluorescence ratio does the source give for CTATTACCG here?
A: 1.04

Q: With CTATTATCCA as the sequence, how does the switch fluorescence ratio read?
A: 0.982

Q: Which switch fluorescence ratio does the source give for CTATTATGGC here?
A: 1.08

Q: CTATTGATGA was tested. Which switch fluorescence ratio did it give?
A: 0.958

Q: How did the switch fluorescence ratio turn out when CTATTTGGAC was run?
A: 1

Q: CTATTTTATA was tested. Which switch fluorescence ratio did it give?
A: 1

Q: CTATTTTCGC was tested. Which switch fluorescence ratio did it give?
A: 1.01

Q: Which switch fluorescence ratio does the source give for CTCAACACTG here?
A: 1.1
